In article PMC4336329 (PLoS ONE, 2015):
Screen size: about 310,000 compounds; about 2,200 (0.71%) showed an effect of 50% or more. Effects have a minus sign here. The list shows a part of the results.

What follows are molecules tested against human ether-à-go-go-related gene (hERG) potassium channel (human, UniProt Q12809) (assay: primary screen, population patch clamp on CHO cells stably expressing hERG).
Chain of human ether-à-go-go-related gene (hERG) potassium channel (Q12809 whole entry, looked up): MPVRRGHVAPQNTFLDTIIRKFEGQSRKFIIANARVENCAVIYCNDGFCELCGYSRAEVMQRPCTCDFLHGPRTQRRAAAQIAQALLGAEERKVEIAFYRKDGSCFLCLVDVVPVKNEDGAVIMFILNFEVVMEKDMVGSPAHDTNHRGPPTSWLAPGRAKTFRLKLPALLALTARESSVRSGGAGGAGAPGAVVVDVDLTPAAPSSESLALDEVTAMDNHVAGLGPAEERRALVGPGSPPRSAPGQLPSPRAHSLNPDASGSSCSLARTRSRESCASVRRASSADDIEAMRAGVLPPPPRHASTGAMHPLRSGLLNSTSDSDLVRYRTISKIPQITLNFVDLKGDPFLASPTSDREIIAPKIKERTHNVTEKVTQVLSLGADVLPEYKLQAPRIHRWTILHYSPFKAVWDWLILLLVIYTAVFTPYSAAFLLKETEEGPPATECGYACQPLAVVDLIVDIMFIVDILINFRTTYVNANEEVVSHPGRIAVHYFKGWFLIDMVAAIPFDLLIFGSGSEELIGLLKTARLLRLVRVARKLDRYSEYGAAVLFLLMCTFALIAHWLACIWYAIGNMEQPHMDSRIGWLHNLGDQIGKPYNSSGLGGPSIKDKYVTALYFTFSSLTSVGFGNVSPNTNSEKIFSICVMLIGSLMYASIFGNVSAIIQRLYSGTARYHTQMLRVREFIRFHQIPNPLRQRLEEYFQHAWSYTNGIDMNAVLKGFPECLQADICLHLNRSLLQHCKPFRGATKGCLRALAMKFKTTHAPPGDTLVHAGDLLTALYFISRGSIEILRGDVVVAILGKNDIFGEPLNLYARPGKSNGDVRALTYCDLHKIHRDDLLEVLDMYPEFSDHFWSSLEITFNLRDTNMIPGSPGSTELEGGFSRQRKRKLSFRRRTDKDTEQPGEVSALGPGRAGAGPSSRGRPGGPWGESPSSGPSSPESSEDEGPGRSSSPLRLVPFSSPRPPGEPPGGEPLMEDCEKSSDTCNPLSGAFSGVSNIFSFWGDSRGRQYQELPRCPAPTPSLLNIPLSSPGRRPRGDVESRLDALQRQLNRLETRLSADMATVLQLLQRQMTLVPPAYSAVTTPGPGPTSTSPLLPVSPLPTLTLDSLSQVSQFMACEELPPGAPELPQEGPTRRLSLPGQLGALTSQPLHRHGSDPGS

Row | SMILES | hERG current change (%, negative = inhibition) at 1uM [%]
1 | CC(C)OP(=O)(c1ccc(N(C)C)cc1)C(O)c1ccccc1F (stereo not shown) | -3.1
2 | COc1ccc2nc(SCC(=O)Nc3cc(C)on3)c(C#N)cc2c1 | 17.5
3 | Cc1cccc(NC(=O)CN2C(=O)/C(=C3\SC(=S)N(CC4CCCO4)C3=O)c3ccccc32)c1 (stereo not shown) | 17.1
4 | CCCCCCc1ccc(N2C[C@H](Cc3ccccc3)[C@@H](CC(=O)NCc3ccc(OC)cc3)C2=O)cc1 | 4.61
5 | Cc1occc1C(=O)NCc1nc(-c2ccccc2)no1 | 15.3
6 | CC(C)(C)C(=O)Nc1cc2c3c(c1)CC(=O)N3CCC2 | 14.4
7 | Cc1ccccc1N1C(S)=C(C#N)C(=O)NC12CCCCC2 | 10.7
8 | Cc1nn(Cc2c(F)c(F)c(F)c(F)c2F)c(C)c1NC(=O)c1c(-c2ccccc2)nn(-c2ccccc2)c1C | 2.12
9 | O=C1N/C(=N/N=C/c2ccc(F)cc2)SC1c1ccccc1 (stereo not shown) | 12.9
10 | O=C1OC(N2C(=O)CC[C@H]2C(=O)Nc2ccc(Br)cc2F)c2ccccc21 (stereo partly shown) | 11
11 | COC(=O)c1ccc(/C=C2/SC(=S)N(CCC(=O)N3CCOCC3)C2=O)cc1 | 20.9
12 | COC(=O)[C@H](CC(C)C)NC(=O)Nc1cccc(Br)c1 | 7.34
13 | Brc1ccc(-c2nnc3sc(CN4CCC5(CC4)OCCO5)cn23)cc1 | 9.64
14 | Cc1ccc(S(=O)(=O)Nc2c(Cl)c(Cl)c(O)c3ccccc23)cc1 | 14.1
15 | CCCCn1c(N)c(-c2nc3ccccc3s2)c2c([N+](=O)[O-])nn(CC)c(=O)c21 | 10.4
16 | O=C(CCc1nc2ccccc2c(=O)[nH]1)NCc1ccccn1 | 19.7
17 | O=C(NC(Cc1c[nH]c2ccccc12)c1nnc2n1CCCCC2)c1ccccc1Cl (stereo not shown) | 15.6
18 | CC(C)N(Cc1ccccc1)C(=O)CN1C(=O)NC2(CCCCCC2)C1=O | 11.7
19 | COCCOC(=O)c1c(NC(=O)CN2CCCc3ccccc32)sc(C(N)=O)c1C | 7.29
20 | Cc1ccc(S(=O)(=O)NCc2c(-c3ccccc3)c3cc(Cl)ccc3[nH]c2=O)cc1 | -0.67
21 | COc1ccc(NC(=O)CC2C(=O)N(c3ccc(F)cc3)C(=S)N2NC(=O)c2ccccc2)cc1 (stereo not shown) | -5.38
22 | CCOC(=O)c1ccc(NC(=S)NN2CCN(C)CC2)cc1 | -0.88

Row | SMILES | hERG current change (%, negative = inhibition) at 1uM [%]
23 | COc1cc(/C=N/NC(=O)c2cn(-c3cccc(C)n3)cn2)ccc1O | 11.6
24 | CN1CCc2c(sc(/N=C/c3cccs3)c2C(N)=O)C1 | 3.2
25 | O=C(C1CCCCC1)N1CCN(c2nc(-c3ccc(F)cc3)cs2)CC1 | 11.4
26 | CCOCCCNC(=O)Cn1cnc2c(cnn2-c2ccc(C)c(C)c2)c1=O | 11
27 | CCC(C)(C)n1nnnc1C(c1ccccc1)N1CCN(Cc2ccccc2)CC1 (stereo not shown) | 4.01
28 | Cc1ccccc1-c1nc(CS(=O)(=O)CC(=O)NCc2ccc(F)cc2)c(C)o1 | 16
29 | CCOC(=O)N1CCC(NC(=O)C2CCN(S(=O)(=O)c3c(C)noc3C)CC2)CC1 | 6.56
30 | CCN1CCCC1CNC(=O)C(=O)NC(C)C (stereo not shown) | 7.17
31 | Cc1ccnc2nc(C(=O)Nc3nccs3)nn12 | 13
32 | O=c1cc(C(F)(F)C(F)F)oc2ccccc12 | 14
33 | O=C1C2CCCN2C(c2ccco2)N1c1ccc(F)cc1 (stereo not shown) | 6.49
34 | COc1ccccc1CNC(=O)COC(=O)Cc1c(Cl)cccc1Cl | 8.67
35 | O=c1cc(O)c2c(=O)n(-c3ccccc3)c3c(c2o1)CCCCC3 | 16.5
36 | N#Cc1nc(-c2ccccc2F)oc1NCc1ccccc1 | 9.28
37 | COc1ccc(-c2[nH]ncc2CNCCn2cccn2)c(F)c1 | -4.75
38 | Cc1noc(C)c1S(=O)(=O)N1CCC(C(=O)N2CCN(c3ccccc3Cl)CC2)CC1 | 7.87
39 | COc1cccc(-c2ccc(C#N)c(SCC(=O)NCCc3ccc(Cl)cc3)n2)c1 | 4.37
40 | O=C(CSCc1ccccc1)N1CCN(c2cccc(C(F)(F)F)c2)CC1 | 9.23
41 | N#CCSc1nnc(-c2ccccc2O)n1Cc1ccccc1 | 16.9
42 | COc1ccc(-n2c(Cc3cccn3C)nnc2SCC(=O)Nc2ccc3c(c2)OCO3)cc1 | 4.71
43 | O=C(CC(=O)NCCc1ccccc1)NCCc1ccccc1 | 12.8
44 | COc1ccc(C(c2sc3ncnn3c2O)N2CC(C)OC(C)C2)cc1OC (stereo not shown) | 9.66

Row | SMILES | hERG current change (%, negative = inhibition) at 1uM [%]
45 | C=CCN(CC=C)S(=O)(=O)c1ncn[nH]1 | 13.4
46 | O=[N+]([O-])c1ccc(C(O)CN2CCN(c3ccccc3)CC2)cc1 (stereo not shown) | -2.31
47 | CC1CCN(c2ccc(/C=N/n3nnnc3N)cc2[N+](=O)[O-])CC1 | 8.79
48 | CC(=O)c1cc(CC=C(C)C)c(O)cc1O | 3.38
49 | Cc1nn(-c2ccc(F)cc2)c2sc(C(=O)OCC(=O)N3CCC(C)CC3)cc12 | -1.89
50 | CCCCN1CNC(=S)N(CCc2ccc(OCC)c(OCC)c2)C1 | 13.5
51 | COc1ccc2cc(C(=O)NCCc3ccccc3)[nH]c2c1 | 5.84
52 | COc1ccc(CN(C(=O)Cn2nnc(-c3ccc(C)o3)n2)C(C(=O)NCC2CCCO2)c2ccco2)cc1 (stereo not shown) | 1.39
53 | CC(=O)Nc1ccc(N2N=C(C)C(N=Nc3ccccc3)C2=O)cc1 (stereo not shown) | -4.61
54 | CCOC(=O)c1cnc2c(C#N)c(C)nn2c1C | 13.8
55 | O=C(O)c1cccc(N=Nc2c(O)[nH]c(=O)[nH]c2=O)c1 | -0.277
56 | O=C(N/N=C/c1cccc([N+](=O)[O-])c1)c1ccc(Br)cc1 | 9.25
57 | Cn1cccc1Cc1nnc(SCC(N)=O)n1-c1ccc(F)cc1 | 4.35
58 | CC1CCN(c2nnc(-c3ccccc3)c3ccccc23)CC1 | 6.37
59 | CCN1CCCC1CNC(=O)CSc1cc(=O)n(C)c2cc(Cl)ccc12 (stereo not shown) | -1.28
60 | COc1ccc(CC(=O)NC(c2ccccc2)c2ccccc2)cc1S(=O)(=O)N1CCOCC1 | 7.26
61 | COc1ccc(C(=O)NN2CCOCC2)cc1[N+](=O)[O-] | 11.8
62 | COc1ccccc1Nc1nc2nonc2[nH]c1=O | 12.5
63 | COc1ccccc1/C=C/C=N/NC(=O)CCC1C(=O)NN=C1C (stereo not shown) | 13.7
64 | NNC(=O)CSCc1nc(-c2ccc(Cl)cc2)cs1 | 11.7
65 | COc1ccc(NC(=O)COC(=O)CN2C(=O)C3CCCCC3C2=O)cc1OC (stereo not shown) | 17.2
66 | CCSc1nnc(-c2ccc(S(=O)(=O)N3CCCC3)cc2)n1C | 9.02

Row | SMILES | hERG current change (%, negative = inhibition) at 1uM [%]
67 | CC1=CCn2c(=O)c3ccccc3c(=O)n2C1 | 11.9
68 | Cc1cccc(-n2c(C)c(-c3ccccc3)[nH]c2=S)c1 | 13.1
69 | COc1cc(CNC2CCCc3ccccc32)cc(OC)c1OC.O=C(O)C(=O)O (stereo not shown) | -4.7
70 | [Br-].c1ccc(-c2cn(-c3ccccc3)c3[n+]2CCCS3)cc1 | 10.8
71 | Cc1cc(N2CCN(c3ncccn3)CC2)nc2c(C)cccc12 | 11.4
72 | COCCCNC(=O)CS(=O)(=O)Cc1nc(-c2cccc(OC)c2)oc1C | 11.3
73 | O=C(CSCc1ccccc1)N1CCN(S(=O)(=O)c2cccc(F)c2)CC1 | 21.6
74 | COC(=O)c1ccc(N2CCN(C)CC2)c(NC(=O)COc2ccc(C)cc2)c1 | -1.2
75 | Cc1ccc(S(=O)(=O)Nc2cc(Cl)c(O)c3ncccc23)cc1 | 11
76 | N#Cc1c2n(c(=S)n(-c3ccccc3[N+](=O)[O-])c1=O)CCCCC2 | -2.02
77 | CC(Sc1cccc[n+]1[O-])c1ccccc1 (stereo not shown) | 13.2
78 | COc1cccc(N2CCN(Cc3nc(N)nc(N4CCCc5ccccc54)n3)CC2)c1 | -7.32
79 | Cc1ccc(S(=O)(=O)NCc2ccc(/C=C(/C#N)C(=O)NCc3ccccc3)o2)cc1 | 9.29
80 | CC[C@@H]1CC=C[C@H]2[C@H]1C(=O)N(Cc1ccccc1)[C@H]2c1ccoc1 | 6.79
81 | COc1ccc(N2CCN(CC(=O)Nc3ccccc3C(=O)NCc3ccccc3)CC2)cc1 | 1.11
82 | O=C(N/N=C/C1=Cc2ccccc2OC1)c1ccncc1 | 8.93
83 | Cc1[nH]c2ccc(OCc3ccccc3)cc2c1CCN1C(=O)OC(C)(C)C1(C)O (stereo not shown) | 10.8
84 | CCOC(=O)c1c(C)n(CC(COC(C)=O)OC(C)=O)c2ccc(OC(C)=O)cc12 (stereo not shown) | -14.9
85 | COc1ccc(/C=N/NC(=O)c2cccnc2)cc1CSc1ccccn1 | 4.38
86 | O=C(NCC(c1cccnc1)N1CCN(c2ccccc2F)CC1)OCc1ccccc1 (stereo not shown) | 11.5
87 | COc1ccc(CNC(=O)Cn2c(=O)oc3cc(S(=O)(=O)N4CCCC4)ccc32)cc1 | 42.5
88 | Oc1ccc(Nc2ccnc3cc(Cl)ccc23)cc1 | 2.4
